# Reference: PubChem BioAssay AID488969 (Vanderbilt High Throughput Screening Facility, 2010)
# The full ranking holds about 110,000 compounds; the median of “z-score” is about -0.1, and the highest 2% start at about 2. This is one part of the list. Calls of active or inactive are those of the source.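 How the source made its calls: active means z-score in the third read window above 3 or below -3; inactive means the rest.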
# Biological target: Metabotropic glutamate receptor 8 (Rattus norvegicus) (UniProt P70579)
# UniProt P70579, sequence (P70579 whole entry, looked up): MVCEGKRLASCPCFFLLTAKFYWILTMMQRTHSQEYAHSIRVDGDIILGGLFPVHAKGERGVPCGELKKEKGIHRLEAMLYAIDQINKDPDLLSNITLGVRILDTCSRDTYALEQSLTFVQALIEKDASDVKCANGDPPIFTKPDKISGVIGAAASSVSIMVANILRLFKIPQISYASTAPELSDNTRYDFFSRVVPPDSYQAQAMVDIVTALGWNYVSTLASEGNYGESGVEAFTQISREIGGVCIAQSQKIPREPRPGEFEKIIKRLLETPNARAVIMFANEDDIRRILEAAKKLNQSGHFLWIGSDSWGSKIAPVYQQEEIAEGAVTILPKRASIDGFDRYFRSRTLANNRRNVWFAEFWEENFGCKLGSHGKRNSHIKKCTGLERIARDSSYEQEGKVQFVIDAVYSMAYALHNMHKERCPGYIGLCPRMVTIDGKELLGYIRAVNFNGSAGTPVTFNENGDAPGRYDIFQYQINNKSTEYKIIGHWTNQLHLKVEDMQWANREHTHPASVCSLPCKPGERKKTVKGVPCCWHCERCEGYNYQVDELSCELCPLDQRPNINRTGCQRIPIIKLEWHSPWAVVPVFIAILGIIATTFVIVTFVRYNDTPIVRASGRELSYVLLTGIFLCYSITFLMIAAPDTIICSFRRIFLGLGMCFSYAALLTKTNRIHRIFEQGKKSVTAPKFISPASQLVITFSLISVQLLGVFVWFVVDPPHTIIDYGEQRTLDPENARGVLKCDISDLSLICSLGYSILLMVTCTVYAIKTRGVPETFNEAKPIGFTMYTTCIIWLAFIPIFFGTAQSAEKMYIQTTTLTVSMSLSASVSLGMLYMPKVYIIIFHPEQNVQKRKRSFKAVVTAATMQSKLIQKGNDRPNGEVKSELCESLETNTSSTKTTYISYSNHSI
# Test: rat mGluR8 modulators via GIRK flux, primary screen, cell-based, thallium flux, HTS (AID 488969)
# Conditions: HEK293 rat mGluR8, GIRK (G protein-gated inwardly rectifying potassium channel) thallium flux, FluoZin2; at 10 µM; stronger effect = higher value; submaximal glutamate (EC20) added with thallium
row,Compound,z-score
1,CCOC(=O)c1cccc(-n2c(-c3ccc(OC)cc3)nc3nc4ccccc4nc32)c1,-0.506
2,O=c1c2oc3ccccc3c2ncn1Cc1ccccc1Cl,-0.23
3,CC(C)(C)c1ccc(C(=O)NCc2nnc(SCC(=O)N3CCCc4ccccc43)n2-c2ccccc2)cc1,-0.167
4,C/C(CCC(=O)O)=N/Nc1ccc([N+](=O)[O-])cc1[N+](=O)[O-],-0.315
5,Cc1cc2ccccn2c1C(=O)c1ccc(Cl)cc1,-0.0562
6,CCOc1ccc(NS(=O)(=O)c2ccc3c(c2)CCN3C(=O)C2CCC2)cc1,-0.102
7,Cc1ccc2c(c1)cc(CN(Cc1ccc3c(c1)OCO3)C(=O)c1ccccc1)c1nnnn12,0.399
8,CC(C)C(=O)c1cn(CC(=O)N2CCCc3ccccc32)c2ccccc12,-0.649
9,N#Cc1ccc(N2CCN(c3ccc(F)cc3)CC2)cc1,-0.419
10,Cn1c(=O)c2c(nc(SCC(=O)N3CCCc4ccccc43)n2C)n(C)c1=O,0.0244
11,C=CCn1c(SCC(=O)O)nnc1-c1ccccc1,0.236
12,Cc1ccccc1-c1nc(Cc2ccc(Cl)cc2)no1,-0.647
13,O=C(COc1ccccc1Cl)NC(=S)N1CCc2ccccc21,active: 12.1
14,O=C(NC(=S)NNC(=O)c1ccc(Cl)cc1Cl)c1cccnc1,-0.129
15,COc1cc(-c2nnc(COC(=O)CSc3cc(C)c4ccccc4n3)o2)cc(OC)c1OC,-0.267
16,CSCCc1nc(SCC(=O)Nc2nnc(C)s2)[nH]c1C,-0.0492
17,O=C(Cn1c(=O)n(Cc2ccccc2)c(=O)c2ccccc21)NCc1ccco1,-1.05
18,CN1C(=O)c2cccc(NCCCCCCN3C(=O)c4ccccc4C3=O)c2C1=O,-0.446
19,FC(F)(F)c1cccc(Sc2cc(C(F)(F)F)nc(-c3ccccn3)n2)c1,-0.203
20,Nc1c(Cl)ncnc1N/N=C/c1ccnc2ccccc12,0.373
21,Cc1cc(C)c(C#N)c(SCC(=O)NC(C)(C)C)n1,-0.0199
22,CCOC(=O)c1cc(C#N)c(SC)nc1-c1ccccc1,-0.657
23,Cc1ccc(CCN2CC(C(=O)NCCCN3CCCCCC3)CC2=O)cc1 (configuration not stated),-0.36

row,Compound,z-score
1,O=C(COc1ccc(S(=O)(=O)NCc2ccccc2)cc1)N1CCOCC1,-0.0335
2,CCc1c(C)[nH]c2nc3ccccc3n2c1=O,-0.36
3,CCn1c(SCC(=O)NCc2ccccc2)nnc1-c1c[nH]c2ccccc12,0.128
4,CCCN(CCC)C(=O)CC(c1ccc(F)cc1)c1ccco1 (configuration not stated),-0.592
5,Cc1cc(Br)ccc1SCC(=O)OCC(=O)Nc1ccccc1C#N,-0.233
6,CCOc1ccc(C(=O)/C=C/Nc2ccc(S(=O)(=O)N=C(N)N)cc2)cc1,-0.195
7,CC(=O)c1c(C)[nH]c(C(=O)COc2cc(C)ccc2C(C)C)c1C,0.317
8,O/C(=C\Sc1nnc(Cc2ccccc2)o1)c1ccc(F)cc1,0.166
9,CCCCn1c(N)c(Sc2ccccc2)c(=O)[nH]c1=O,-0.264
10,Cn1c(=O)c(=O)n(C)c2cc(S(=O)(=O)N3CCC(N4CCCCC4)CC3)ccc21,1.22
11,Cc1cc(C)c2c3c(sc2n1)C1(CCSCC1)C(C#N)=C(N)O3,-0.0686
12,Cc1cc(N2C3CCC2CC(O)(c2ccc(F)cc2)C3)nc(-c2ccccc2)n1 (configuration not stated),-0.0896
13,CC(=O)Nc1ccc(S(=O)(=O)N2CCCC2C(=O)O)cc1 (configuration not stated),0.696
14,Nc1nnc(C(c2ccccc2)c2ccccc2)s1,-0.189
15,COc1ccc(NC(=O)c2ccccc2F)cc1Cl,-0.386
16,COc1ccc(Br)cc1CNC(=O)CCc1nc(-c2ccccc2F)no1,-0.197
17,O=c1c2sccc2nc(SCc2ccc([N+](=O)[O-])cc2)n1Cc1ccccn1,-0.346
18,CN1CC2(C(=O)c3ccccc3)CN(C)CC(C(=O)c3ccccc3)(C1)C2,0.389
19,O=C(CCCN1C(=O)/C(=C\c2ccco2)SC1=S)Nc1cccc2ccccc12,0.359
20,COc1cc(CNCc2cccs2)ccc1OCc1ccccc1,-0.391
21,COc1cccc2c(=O)c(SC(F)(F)C(F)C(F)(F)F)c(C)[nH]c12 (configuration not stated),0.261
22,CCCCCCc1cc2cc(C(=O)Nc3cccc(OC)c3)c(=O)oc2cc1O,-0.279
23,CCCCSc1nc(O)c(Cc2ccccc2)c(=O)[nH]1,0.379

row,Compound,z-score
1,CC(C)c1ccc(NC(=O)C2CCCN(S(=O)(=O)c3cnc[nH]3)C2)cc1 (configuration not stated),-0.184
2,O=C(Cc1csc(Nc2nc(=S)[nH]c3ccccc23)n1)NCc1ccccc1Cl,active: 3.83
3,COc1ccccc1NC(=O)CSc1nnnn1Cc1ccccc1,-0.315
4,Cc1ccc2[nH]c(-c3ccccc3)c(CN3CCOCC3)c(=O)c2c1,-0.256
5,CCNC(=S)NNC(=O)Cn1nc(C)cc1C,0.0489
6,C=CCn1cc(C(=O)OC)c(=O)c2cc(S(=O)(=O)N(CC)CC)ccc21,-0.542
7,Cc1nc(-c2ccccc2)sc1C(=O)/C=C/c1ccc(Cl)cc1,-0.365
8,O=c1cc(CO)oc(CN2CCN(CCO)CC2)c1O,0.178
9,O=S1(=O)N=C(Nc2nncs2)c2ccccc21,-0.0574
10,O=C1c2ccsc2SCCN1Cc1ccccc1Cl,-1.35
11,CC(=O)C(Sc1nc(N2CCOCC2)nc(N2CCOCC2)n1)C(=O)Nc1ccccc1 (configuration not stated),-0.0389
12,Cc1ccc(-c2nn(C)c(=O)c3ccccc23)cc1CNS(C)(=O)=O,-0.0971
13,COC(=O)CSc1cc(SCC(=O)OC)c(C#N)c(SCC(=O)OC)c1,-1.23
14,O=C(Nc1ccccc1)C1CC(=O)N(C2CCCCC2)C1 (configuration not stated),0.315
15,COc1ccc(CC(=O)Nc2ccc(-c3nnc(-c4ccc(C)cc4)o3)cc2)cc1,-0.695
16,CC1(C)Cc2c(sc(/N=C/N3CCOCC3)c2C#N)C(C)(C)N1,-0.0886
17,Cc1cc(C(=O)OCC(=O)N2c3ccccc3CC2C)c(C)o1 (configuration not stated),-1.38
18,O=C(COC(=O)c1c2c(nc3ccccc13)CCCCC2)c1ccc(Cl)s1,-0.0776
19,Cc1ccc2cc3c(NC(=O)c4ccco4)nn(C)c3nc2c1,-0.516
20,Cc1nc(-c2cn[nH]c2)c2cc(C)oc2n1,-0.371
21,Cc1cc(C)c(CSc2ncc(-c3ccc([N+](=O)[O-])cc3)[nH]2)c(C)c1,-0.26
22,COCCN(CCOC)S(=O)(=O)c1ccc(C(=O)Nc2nc(C)c(C(C)=O)s2)cc1,-0.266
23,CN(C)c1ccc(C(=S)Nc2ccccc2)cc1,-0.296

row,Compound,z-score
1,CCCC(=O)Nc1ccc(NC(=O)c2ccccc2Cl)nc1,-0.116
2,COc1ccc(-c2cc(CNC(=O)CN(C)Cc3ccccc3)on2)cc1,-0.113
3,COc1ccc(CCNC(=O)c2nonc2N)cc1,-0.242
4,C=CCc1c(C)[nH]c2ccc(C)cc2c1=O,0.0753
5,CC(C)n1cc(/C=C2/SC(=O)N(CC(=O)Nc3ccc4c(c3)OCO4)C2=O)c2ccccc21,0.16
6,Cc1ccc2[nH]c(=O)c(CN(Cc3cccnc3)Cc3nnnn3CCN3CCOCC3)cc2c1,0.479
7,CCCn1nc(NC(=O)C2CCCO2)c2cc3cc(C)ccc3nc21 (configuration not stated),0.0638
8,COC(=O)c1cc2ccsc2n1Cc1cc(=O)n2ccccc2n1,-0.127
9,COc1ccc(C2=CC(c3cccc(OC)c3)n3nnnc3N2)cc1 (configuration not stated),-0.0249
10,CCOc1cc(C(=O)N(C)Cc2cc3cc(OC)ccc3[nH]c2=O)cc(OCC)c1OCC,0.225
11,Cc1ccc2nc(SCc3cn4cccnc4n3)[nH]c2c1,0.132
12,CCC1Oc2ccc(C)cc2N(CC(=O)N(Cc2ccc(C)o2)C2CC(C)(C)NC(C)(C)C2)C1=O (configuration not stated),0.58
13,CSc1cccc(NC(=O)C2CCCN2S(=O)(=O)c2ccc(Br)s2)c1 (configuration not stated),-0.411
14,CCn1c(SCC(=O)N2CCCCC2)nc2c(c1=O)SC(C)C2 (configuration not stated),-1.57
15,Cc1nnc(C)n1/N=C/c1ccccc1,0.733
16,COc1cccc(CNC(=O)Cc2nc3nc(C)cc(C)n3n2)c1,-0.187
17,O=C(Nc1nc2ccccc2n1CCN1CCCCC1)c1ccc(Cl)cc1,0.975
18,CCOC(=O)c1cnc(-c2ccccc2)nc1Oc1ccccc1,-0.19
19,O=C(NCCc1cccs1)C12CN(Cc3ccccc3)CC1C(c1cccc([N+](=O)[O-])c1)=NO2 (configuration not stated),-0.481
20,Cc1onc(-c2ccccc2Cl)c1C(=O)N/N=C(\N)COc1ccc(Cl)cc1,-0.00188
21,COc1ccc(-c2nn(-c3ccccc3)cc2/C=N/n2cnnc2)cc1OC,-0.958
22,COc1ccc(C(=O)NCc2nnc(SCC(=O)Nc3cc(C)cc(C)c3)o2)cc1OC,-0.401
23,COc1ncnc2sc3c(c12)CCCC3,-0.287

row,Compound,z-score
1,CCOc1ccccc1-n1nnnc1SCC(=O)Nc1cc2oc3ccccc3c2cc1OC,0.384
2,c1ccc(-c2noc(-c3cccc4ccccc34)n2)nc1,-0.375
3,COc1ccc(OCCC(=O)NC2=NCCS2)cc1,-0.277
4,COc1ccc(C)cc1NC(=O)CSc1nnc(-c2cc3cccc(OC)c3o2)n1N,-0.21
5,Cc1cc(C)c2c(=O)[nH]c(SCC(=O)N(C)C)nc2n1,-0.499
6,O=C(CSc1cccc2cccc(Cl)c12)NCc1cccs1,active: 3.5
7,C=CCc1ccc(OCCn2cccc2C=O)c(OC)c1,-0.437
8,CCCOc1ccc2c(=O)c(-c3cc(C(=O)OC)oc3C)c(C)oc2c1,-0.282
9,Cc1[nH]c2ccc(OC(=O)N3CCOCC3)cc2c1C(=O)OC(C)C,-0.288
10,CCCSc1nc2c(c(=O)n1CC)SC(C)C2 (configuration not stated),-0.713
11,CCOCC(O)CNc1ccccc1 (configuration not stated),-0.0266
12,O=C(NCc1ccccc1)C(c1ccccc1)N(Cc1cccs1)C(=O)c1cnccn1 (configuration not stated),0.21
13,CCOCCCNS(=O)(=O)c1ccc(NC(=O)c2ccc([N+](=O)[O-])cc2Cl)cc1,-0.485
14,N#C/C(=C\c1ccccc1)c1n[nH]c(Cn2cncn2)n1,-0.763
15,CCc1nnc(NC(=O)CN2CCN(C3CCCCC3)CC2)s1,1.07
16,CCOC(=O)c1c(C(F)(F)F)nc2ncccn12,-0.534
17,c1ccc(-c2nnc3n2NC(c2ccc4c(c2)OCO4)S3)cc1 (configuration not stated),1.86
18,COc1cc(N=Cc2c(O)[nH]c3ccccc23)cc(OC)c1OC,-0.838
19,CC(=O)Nc1ccc(C#Cc2ccc(NC(C)=O)cc2)cc1,-0.144
20,COc1ccc(OC)c(S(=O)(=O)Nc2ccc(O)c3ccccc23)c1,-0.0409
